Results from the supplement of paper PMC11417369.
The other results are listed elsewhere or left out.

tested on: PF3D7_0420300 AP2 domain 1 (GST-tagged); test: gcPBM binding intensity (ln(normalized median fluorescence intensity)); higher = stronger DNA binding
Procedure, shortened: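 Using an Agilent 4 × 180k array, primer-extended double-stranded 36-bp intergenic genomic probes and negative controls were exposed for 1 h to GST-fused P. falciparum DNA-binding domains expressed in E. coli. Binding was carried out in 1× PBS with 1% milk, 0.2 mg/ml BSA, 0.5% salmon testes DNA and 0.03% Triton X-100, and protein was detected with Alexa488 anti-GST antibody and a 488 nm scan. Binding intensity is the highest Masliner-normalised natural-log median intensity across replicate spots of either probe orientation.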

Row | Sequence | gcPBM binding intensity (ln)
1 | ATATATATATATATTTGTACATATATACATAAAATT [XGTACX_site359] | 9.16
2 | CACACCCACAGACACACACACACATATATATATATA [CACACA_site363] | 10.2
3 | TTTAAAATGGGACTTTGAAAAAAAAAAAAAAAAACA [TGCATGCA_negctrl_site111] | 9.09
4 | GAAAAAGTTATAAATTGTACTAAATATTAAATATTG [XGTACX_site7890] | 9
5 | AAAAAAAAAAAAAGGTGTACATGCAAAATAAATTCT [XGTACX_site4592] | 9.63
6 | AAATAAATAAGAAACGCATGCATATATAATATATAA [TGCATGCA_site326] | 9.36
7 | TAGGCGTTTAATAAAAGTACCCACACATATATTATT [XGTACX_site1932] | 9.33
8 | TTTATTATCGTTCTCATACACACAAAATATACATAC [CACACA_site2642] | 9.65
9 | AAATATATATGTGGGGGTACTAATAAAAAAACCCCT [XGTACX_site2657] | 9.31
10 | AATTCAAATATAAATACACACACATAGCTACAAAAT [CACACA_site9386] | 10
11 | ATTTAACAACTTCAAACACACAATATATATATATAT [CACACA_site2093] | 9.35
12 | CATAAATTAATAGTCACACACGTATTTTTTATATAT [CACACA_site2526] | 9.47
13 | TGAAAAAAAAAAAAAAAAAAAAGAAAAAAAAAAAAA [CACACA_negctrl_site709] | 8.27
14 | TTACACAAACAAATTATGGACACATAAGTAAAAGGA [CACACA_negctrl_site1622] | 9.63
15 | TTATCCATAAAAAAGTGTACGCACTAAAATTGAAAA [XGTACX_site5460] | 9.05
16 | GAAAAAAGAAAAAAAAGTACATATATTTAATAAGAC [XGTACX_site6912] | 9.57
17 | TATAATTCATATGAAACACACATTTATTTTAATTAC [CACACA_site3686] | 9.35
18 | GGACTTAAATAAAATGGTACAGAATTTATATATATT [XGTACX_site8214] | 9.23
19 | TAATGGAATACATATAGTACATAATATTACATACAT [XGTACX_site5737] | 9.43

Row | Sequence | gcPBM binding intensity (ln)
20 | TTTTAAAAATTAAAAAAATTAAATGTAAAAAAATGA [CACACA_negctrl_site861] | 8.91
21 | ATATATGTATATGTGTGTACATATATGTTTATTATT [XGTACX_site6043] | 9.55
22 | ATTAAAAATTAATATAAACACACAAAAATTAATAAA [CACACA_site8019] | 9.61
23 | TCCTCGCGTAATACTTTTCAAATAAAAAAAATAAAA [TGCATGCA_negctrl_site403] | 8.64
24 | TTTTTTTTTTTTTATTGTACTAGTAGATATATATAC [XGTACX_site3463] | 9.17
25 | CCAATATATACATATATATAGTTATATATATTTCCT [TGCATGCA_negctrl_site38] | 9.19
26 | GTGTCAAATTTTATAACACACAAAAGATTATATAAG [CACACA_site4086] | 9.3
27 | AAACATACTTGATGCAGTACACATTATAAGCACATA [XGTACX_site3359] | 9.26
28 | TTATGTGCTTTAAAAGTGCATTTTTTTTTTTTTTTT | 8.86
29 | TATATGTTTTATAAATGTACATATACTTAAATATTT [XGTACX_site4753] | 9.13
30 | TTTATCAAAAAAAAAAAAAAAAAAAAAAAAAATTGT [CACACA_negctrl_site176] | 8.91
31 | TTATTTGTATCCATTTCACACATTTTATATAGTATC [CACACA_site5989] | 9.45
32 | TTTTTTGTTATGCGGGTGCATATAATAATGTGATGA | 9.08
33 | AATACATAATAACGTTGTACAAAAATTATAATACAT [XGTACX_site6508] | 9.62
34 | ACTATTAAGAATAAAGAAATATGTAATTGTATTTAA [CACACA_negctrl_site516] | 9.06
35 | TATAAATAAATGTGTACACACATTAAAATCAAACGT [CACACA_site2340] | 9.75
36 | TTTTTTTTTTTTTTTACACACAAATGTATACTATAT [CACACA_site1787] | 9.41
37 | TATTAAATATTCATATGTACATATAGTTTATAAATT [XGTACX_site7455] | 9.09
38 | ATATATGTATGTTAGACACACATATTATAATATGTT [CACACA_site116] | 9.41

Row | Sequence | gcPBM binding intensity (ln)
39 | AAAACGGATTCTTTATAAATAAATAAATAAATATAA [XGTACX_negctrl_site157] | 8.9
40 | AATACATACACAAATACACACACAAATACATACACA [CACACA_site8134] | 10.1
41 | GTATTATCTTTTAATAGTACATATTTTTTTGAAACA [XGTACX_site4050] | 9
42 | AATATATTTTTATATTGTACAAAAGAAAAAAAATAT [XGTACX_site1689] | 9.23
43 | CATATAATATTTGAAACTATATATAAATATAAGGTA [TGCATGCA_negctrl_site19] | 9.19
44 | AGTTTTCCATGTTAATGTACTTAACAATACCATAAT [XGTACX_site209] | 9.25
45 | ATTTATTCATAGACAACAAGAAAAAAAAAAAAAATT [CACACA_negctrl_site1168] | 9.3
46 | TATATCCATATTGTATGTACACATATAATACCAATG [XGTACX_site7230] | 9.27
47 | ATATATTTAATATTCACACATAATTATTTTTACTCT [CACACA_site5438] | 9.45
48 | ATATAATGATAATATTGTACATGTTATATTTCAATA [XGTACX_site8645] | 9.2
49 | TATAGATAAGAATATGCACACATTTTATTTTTTTTT [CACACA_site1982] | 9.3
50 | TTGTAATATCTTGTCACACATATATATATATATATA [CACACA_site4937] | 9.31
51 | TTTTTAATTTATTAAGAAGTAAAGAATAACTCTTTT [TGCATGCA_negctrl_site101] | 8.57
52 | AAACATTAAAATAACTCACACATTTTTCTAGTCTTC [CACACA_site4612] | 9.41
53 | TATTATTCTGTATTTGCATGTGATCATATATATGTA [TGCATGCA_site1053] | 9.47
54 | CATATGTATATGACTACACACAAGGGTGTACAGATA [CACACA_site4776] | 9.51
55 | GTATATCATTTTGGGGTGCTTAAAAATAATGAATAC | 9.27
56 | TATATAACATAATATACACACATTATGTGCGTAATT [CACACA_site4073] | 9.48
